Source: paper PMC4336329 (PLoS ONE, 2015)
Among all 310,000 compounds or so, about 14,000 (4.5%) showed an effect of 50% or more. Effects have a minus sign here. The list shows a part of the results.

These molecules were tested against human ether-à-go-go-related gene (hERG) potassium channel (human, UniProt Q12809) (assay: primary screen, population patch clamp on CHO cells stably expressing hERG).
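Further: peak tail current of the secondary pulse compared with the same well before compound.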

Sequence of human ether-à-go-go-related gene (hERG) potassium channel (Q12809 whole entry, looked up): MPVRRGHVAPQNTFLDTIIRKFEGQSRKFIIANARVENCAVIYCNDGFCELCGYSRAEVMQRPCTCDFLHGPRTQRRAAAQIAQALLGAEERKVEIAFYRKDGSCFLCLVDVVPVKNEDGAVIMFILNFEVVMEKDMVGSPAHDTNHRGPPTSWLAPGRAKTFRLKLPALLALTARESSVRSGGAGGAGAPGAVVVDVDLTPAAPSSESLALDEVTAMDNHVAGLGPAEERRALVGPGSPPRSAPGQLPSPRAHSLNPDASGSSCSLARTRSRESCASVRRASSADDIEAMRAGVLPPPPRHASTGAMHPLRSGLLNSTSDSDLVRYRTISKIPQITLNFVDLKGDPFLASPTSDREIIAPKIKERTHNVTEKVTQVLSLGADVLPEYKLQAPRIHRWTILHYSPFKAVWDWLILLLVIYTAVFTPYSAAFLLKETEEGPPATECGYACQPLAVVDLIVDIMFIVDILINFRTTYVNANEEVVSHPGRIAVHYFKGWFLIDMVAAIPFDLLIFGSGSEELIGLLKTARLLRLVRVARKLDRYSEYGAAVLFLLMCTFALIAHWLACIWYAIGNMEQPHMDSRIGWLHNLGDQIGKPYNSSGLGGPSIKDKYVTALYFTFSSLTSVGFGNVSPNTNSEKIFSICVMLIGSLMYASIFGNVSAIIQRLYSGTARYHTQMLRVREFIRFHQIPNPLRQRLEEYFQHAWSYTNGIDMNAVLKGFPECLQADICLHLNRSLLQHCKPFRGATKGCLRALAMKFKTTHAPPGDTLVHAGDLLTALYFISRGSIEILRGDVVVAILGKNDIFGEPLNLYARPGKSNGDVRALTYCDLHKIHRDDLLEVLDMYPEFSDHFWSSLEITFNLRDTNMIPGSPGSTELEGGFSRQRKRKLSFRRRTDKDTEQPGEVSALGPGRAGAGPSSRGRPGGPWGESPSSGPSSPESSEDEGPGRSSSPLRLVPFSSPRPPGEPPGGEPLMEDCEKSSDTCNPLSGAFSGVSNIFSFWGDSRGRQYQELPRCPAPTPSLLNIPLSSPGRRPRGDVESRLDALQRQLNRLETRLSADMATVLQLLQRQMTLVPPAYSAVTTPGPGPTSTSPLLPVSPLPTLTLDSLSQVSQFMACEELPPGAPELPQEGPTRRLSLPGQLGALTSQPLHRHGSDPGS

SMILES | hERG current change (%, negative = inhibition) at 10uM
COc1ccc(S(=O)(=O)N(c2onc(C)c2Cl)S(=O)(=O)c2ccc(OC)cc2)cc1 | 11.9%
CCCCn1c(N)c(N(CC(C)C)C(=O)C(C)SCc2nc3sc(C)c(C)c3c(=O)[nH]2)c(=O)[nH]c1=O (stereo not shown) | 18.5%
COc1cccc(N2C(=O)Nc3ccc(Br)cc3C2(O)C(=O)NCCCOC(C)C)c1 (stereo not shown) | 19.3%
O=C(Nc1ncccn1)c1cccs1 | 10.8%
CCCC(=O)Nc1ccc(NCc2ccc(C)s2)cc1 | 5.96%
CCc1ccc(NC(=S)Nn2cnnc2)cc1 | 13.9%
Cc1cccc(NC(=S)N(CCc2ccncc2)C(C)C)c1C | -8.61%
COc1ccccc1CNC(=O)CCNS(=O)(=O)c1cccc2nonc12 | 4.83%
CCOC(=O)c1c(NC(=O)CC)sc2c1CCN(Cc1ccccc1)C2.Cl | -14.5%
O=C(NCCc1ccccc1)c1ccc(CS(=O)(=O)c2ccc(Br)cc2)o1 | 10.2%
OC(COc1ccc(F)cc1Cl)CN1CCc2ccccc2C1 (stereo not shown) | -41.7%
NC(=O)COC(=O)CC(NC(N)=O)c1ccc(Cl)cc1 (stereo not shown) | 17.6%
CCN(C(=O)CN1C(=O)S/C(=C\c2cccc(OC)c2)C1=O)C1CCS(=O)(=O)C1 (stereo not shown) | -17%
O=C(NCc1cccnc1)Nc1ccc(Cl)cc1Cl | -7.68%
Cc1c(C(=O)Nc2ccccc2Cl)oc2ccc(S(=O)(=O)N3CCC4(CC3)OCCO4)cc12 | 2.81%
COc1ccccc1CN(C)C(=O)C1COc2ccccc2O1 (stereo not shown) | 5.93%
Cl.Clc1ccc(COc2cccc(CNCc3ccncc3)c2)cc1 | -59.8%
COc1nc(NCC(C)C)nc(Oc2ccc(=O)n(-c3ccccc3)n2)n1 | -7.3%
CC1CC(C)CN(CCCNC(=O)c2ccc3c(c2)NC(=O)C(N2CCCCC2)S3)C1 (stereo not shown) | -19.1%
Cn1ccnc1C(=O)c1ccccc1Cl | 33.7%
CN(C)c1nc(OCC(=O)NC(C)(C)C)nc(N(C)C)n1 | 8.21%
CC1(C)C[C@H](O)[C@@]23C[C@@H](OC2=O)[C@]2(C)C(=CCC4[C@@]5(C)CC[C@H](O)C(C)(C)C5CC[C@]42C)[C@@H]3C1 (stereo partly shown) | 17.7%

SMILES | hERG current change (%, negative = inhibition) at 10uM
O=C(Nc1ccc(Cl)cc1)Nc1ccon1 | 15%
CN(C(=O)c1ccccc1C(=O)OCC(=O)Nc1ccccc1)c1ccccc1 | 0.655%
CSc1[nH]c(=O)c(C(=O)O)cc1C#N | 8.03%
Nc1cccc([N+](=O)[O-])c1 | 14.9%
CNC(=O)C12CC3CC(C1)CC(c1ccc(C)cc1)(C3)C2 | -17%
CCOC(=O)c1c(C)[nH]c(C(=O)COC(=O)CCC(=O)c2ccc3c(c2)OCCO3)c1C | -2.15%
Cc1ccc(Cn2ncc3c(NCCN(C)C)ncnc32)cc1 | -0.559%
CC(=O)C1=C(O)C(=O)N(Cc2ccco2)C1c1ccccc1 (stereo not shown) | 10.3%
COCCNC(=O)C(c1ccc(F)cc1)N(C(=O)CCC(=O)Nc1ccccn1)c1cccc(C)c1 (stereo not shown) | 16.2%
CCOC(OCC)P(=O)(C(C)C)C(C)C | 6.64%
Cc1nnc(SCC2=C(C(=O)O)N3C(=O)C(NC(=O)C(C)n4nc(C(F)(F)F)cc4C)C3SC2)s1 (stereo not shown) | 17.3%
CCOC(=O)C1=C(C)N=c2s/c(=C\c3cccc(OCC(=O)O)c3)c(=O)n2C1c1ccccc1 (stereo not shown) | -15.9%
C/C(=N\NC(=O)CSc1nc(C)[nH]c1[N+](=O)[O-])c1ccc(F)cc1 | 11.4%
CCC(=O)c1ccc(/C=C/c2nc3ccccc3n2C)o1 | -27.7%
C=CCn1c(SCC(=O)NNC(=O)Nc2cccc(Cl)c2)nnc1-c1ccccc1 | -34.9%
c1ccc(-c2ccc(OCCOCCn3cncn3)cc2)cc1 | -10.7%
COc1ccc(S(=O)(=O)Nc2ccc(N3CCOCC3)cc2)cc1[N+](=O)[O-] | 1.63%
COc1ccc(N2CC(C(=O)N[C@@H](CC(C)C)C(=O)NC3CCCCC3)CC2=O)cc1 (stereo partly shown) | 13.7%
FC(F)(F)c1cccc(CN2CCCCCC2)c1 | 2.33%
O=C(O)C(=O)O.O=C(c1cccc(F)c1)N1CCN(Cc2c[nH]c3ccccc23)CC1 | -9.05%
Cc1ccc(S(=O)(=O)CCc2nc3ccccc3s2)cc1 | -5.74%
O=C(CSc1ncn[nH]1)Nc1cc(S(=O)(=O)N2CCCC2)ccc1Cl | 9.05%

SMILES | hERG current change (%, negative = inhibition) at 10uM
O=C(c1ccc(COc2c(F)c(F)c(F)c(F)c2F)o1)N1CCOCC1 | -18%
CC1=C(C)C(=O)N(c2ccccn2)C1=O | 10.2%
Cc1cc(C)c2nc(/N=C(\N)NC(=O)Nc3ccccc3)nc(C)c2c1 | -1.13%
CCn1c(CCc2nc3ccccc3[nH]2)n[nH]c1=S | 46.9%
O=C(COC(=O)CCc1nc2ccccc2s1)NC(=O)NCc1ccco1 | -11.4%
Cc1nc2ccccc2c2c1C(=O)N(c1ccc(C(=O)O)cc1)C2=O | -10.8%
Cc1c(C2Nc3ccccc3C(=O)N2O)cnn1C (stereo not shown) | -5.29%
COc1ccc(N(C(=O)C(C)C)S(=O)(=O)c2ccc3ccccc3c2)cc1 | -13.7%
COc1ccc(C(c2nnnn2Cc2ccc(F)cc2)N2CCN(c3ccccc3)CC2)cc1 (stereo not shown) | -4.37%
COc1ccc2c(c1)C(c1cccs1)=NNC(c1ccncc1)=N2 | -10.3%
CCCCc1cc(=O)oc2cc(C)cc(OCC(=O)N3CCC(C(N)=O)CC3)c12 | -13.6%
C=CCN1C2CCCC1CC(NC(=O)Nc1cccc(C(C)=O)c1)C2 (stereo not shown) | 5.52%
Cc1c(NC(=O)CN2C(=O)C3C4C=CC(C4)C3C2=O)c(=O)n(-c2ccccc2)n1C (stereo not shown) | 3.02%
O=C1OCC(c2ccc(Cl)s2)=C1c1ccccc1[N+](=O)[O-] | 4.99%
COc1ccc(CN(C)Cc2cc(=O)n3ccsc3n2)c(OC)c1OC | -9.79%
Cc1cccn2cc(CNC(=O)c3ccc(Br)o3)nc12 | 1.03%
O=C(Nc1ccc(NC(=O)c2ccc3c(c2)OCO3)cc1)c1cccc(Cl)c1 | 24.9%
COc1cc(/C=N/NC(=O)c2cccc(S(=O)(=O)N3CCOCC3)c2)cc(OC)c1O | -9.08%
CCOC(=O)C(C)n1cnc2sc(C)c(C)c2c1=O (stereo not shown) | 17%
Cc1ccc(COn2c(-c3ccc(Cl)cc3Cl)nc3ncccc32)cc1 | -40%
Cc1nn(Cc2ccccc2Cl)c(C)c1C(=O)N1CCN(c2ccccc2)CC1 | -58.6%
O=C1OCCC1Sc1ncnc2sc3c(c12)CCC3 (stereo not shown) | -7.55%

SMILES | hERG current change (%, negative = inhibition) at 10uM
CCCNc1nc(C)nc2c1cnn2CCc1ccccc1 | -12.8%
C#CCOCCOCCOCCNc1nc(N2CCOCC2)nc(N2CCN(C(=O)[C@H]([C@@H](C)O)n3cc(CCCC[NH3+])nn3)CC2)n1.[Cl-] | 13.8%
Cc1ccc2[nH]c(=O)c(NC(N)=S)nc2c1 | 14%
COc1ccc(OCC(=O)Nc2ccc(S(=O)(=O)Nc3cc(C)nc(C)n3)cc2)cc1 | 21%
Cc1cc(OCC(=O)NC2CC(C)(C)NC(C)(C)C2)c2c(C)c(C)c(=O)oc2c1 | 15.7%
Cc1ccc(C(=O)Nc2ccc(N3CCN(C)CC3)cc2)c(Cl)c1 | -8.37%
COc1ccccc1CNS(=O)(=O)c1ccc2c(c1)oc(=O)n2C | -16.7%
CN(C)c1ccc(N/C=C/C(=O)C(F)(F)F)cc1 | 19%
CCOc1ccc(NC(=O)c2cccc3ccccc23)cc1 | 14.4%
CCC(C)(C)NC(=O)C(c1ccc(F)cc1)N(Cc1ccccc1)C(=O)c1cnccn1 (stereo not shown) | -37.6%
CCOC(=O)c1c(NC(=O)CSc2nc3ccccc3[nH]2)sc2c1CC(C)(C)NC2(C)C | -45.2%
CCOc1ccc(C(C)=O)cc1CN1C(=O)NC(C)(C2CC2)C1=O (stereo not shown) | 11.8%
O=[N+]([O-])c1ccc(NCCCN2CCOCC2)c2ncccc12 | 31.6%
CC1(C)Cc2nc3sc4c(N(CCO)CCO)ncnc4c3cc2CO1 | 3.56%
CCC(=O)c1ccc(NC(C)=O)cc1O | 4.42%
COCc1ccc(CN2CCCC(CCC(=O)NCc3ccc(C)o3)C2)o1 (stereo not shown) | -16.7%
CN(c1ccccc1)S(=O)(=O)c1cccc(C(=O)N2CCN(c3ccccn3)CC2)c1 | -35.8%
CCc1ccccc1NC(=O)c1ccc(-c2csc(C)n2)cc1 | -12.4%
CCn1cc(C(=O)NCCc2ccccc2C)c(=O)c2ccc(C)nc21 | 21.1%
O=C(O)C1C2CC3C(OC(=O)C31)C2Cl (stereo not shown) | 15%
COc1ccc(C(=O)N2CCCC2(C#N)c2ccccc2)cc1[N+](=O)[O-] (stereo not shown) | -41%
Cc1cc(C(F)F)nn1CC(=O)NC1C(=O)N2C(C(=O)O)=C(CSc3nnnn3C)CSC12 (stereo not shown) | -2.04%
